Measured values published in the supplement of paper PMC12217912.
The other results are listed elsewhere or left out. The full chains were built here from the parent and the listed change. Inactive controls read about 0.05.

B1: TEV protease; numbered along this chain (parent)
chain: MGESLFKGPRDYNPISSSICHLTNESDGHTTSLYGIGFGPFIITNKHLFRRNNGTLVVQSLHGVFKVKDTTTLQQHLVDGRDMIIIRMPKDFPPFPQKLKFREPQREERICLVTTNFQTKSMSSMVSDTSCTFPSGDGIFWKHWIQTKDGQCGSPLVSTRDGFIVGIHSASNFTNTNNYFTSVPKNFMELLTNQEAQQWVSGWRLNADSVLWGGHKVFMVKPEEPFQPVKEATQL

Variants of: B1
Test: raw area under fraction-flipped curve 0-4 h after induction (AUC4h, not background-subtracted), DNA-recorder readout of cleavage of the substrate (dimensionless); higher = more cleavage of the substrate by the protease variant
Settings: temperature: 34 °C; time window: 0-4 h after rhamnose induction
Protocol: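 In vivo DNA recorder in E. coli TOP10(DE3) ΔrhaA at 34 °C. Each TEVp single-site mutant (parent TEVp 0) is paired with a single-site variant of the 7-mer TEVs (canonical ENLYFQ|S). The substrate sits between flexible linkers in a Bxb1-sfGFP-TEVs-SsrA fusion, so cleavage stabilises Bxb1 and speeds flipping of a recombination array, read by NGS. The value is the raw area under the fraction-flipped curve over 0-4 h after rhamnose induction (AUC4h), with ≥20 reads per time point. It is not background-subtracted; inactive controls average about 0.047.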
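Further: Bxb1 expression induced with 0.2% (w/v) L-rhamnose at OD600 near 0.5, cultures sampled hourly, flipped fraction per protease–substrate barcode pair counted by paired-end Illumina sequencing.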

Row | Variant | area with substrate ENLCFQS | area with substrate ENLDFQS | area with substrate ENLEFQS | area with substrate ENLFFQS | area with substrate ENLHFQS | area with substrate ENLKFQS | area with substrate ENLLFQS | area with substrate ENLNFQS | area with substrate ENLRFQS | area with substrate ENLSFQS | area with substrate ENLVFQS | area with substrate ENLWFQS | area with substrate ENLGFQS | area with substrate ENLIFQS | area with substrate ENLPFQS | area with substrate ENLQFQS | area with substrate ENLMFQS | area with substrate ENLTFQS
1 | N116L | 0.0757 | 0.0613 | 0.0807 | 0.0828 | 0.0705 | 0.0812 | 0.0828 | 0.0386 | 0.0649 | 0.0513 | 0.0776 | 0.0894 | – | – | – | – | – | –
2 | E195R | 0.0726 | 0.0679 | – | 0.0804 | – | 0.0715 | 0.0599 | 0.0721 | 0.065 | 0.0508 | 0.12 | 0.0638 | 0.0678 | 0.0646 | 0.0592 | – | – | –
3 | V58R | 0.0457 | 0.0438 | 0.054 | 0.0569 | – | – | – | 0.0643 | 0.0529 | 0.057 | – | – | – | 0.0585 | – | 0.0593 | – | –
4 | F101V | 0.0437 | – | – | 0.0527 | 0.0481 | 0.0708 | – | 0.0772 | – | 0.0385 | – | – | – | 0.0683 | – | 0.0611 | – | –
5 | L191P | 0.0594 | – | 0.0548 | 0.0501 | – | 0.0547 | – | – | 0.0525 | 0.0703 | – | – | – | – | 0.0567 | – | – | –
6 | F133P | 0.0221 | 0.0432 | 0.0567 | 0.0661 | 0.0677 | – | – | 0.0556 | 0.0566 | 0.0506 | 0.0659 | – | – | – | 0.0467 | 0.0573 | – | –
7 | Q75A | 0.0565 | 0.0644 | 0.0505 | 0.0579 | 0.0581 | 0.0655 | 0.0534 | 0.0596 | – | 0.0629 | – | 0.0776 | – | 0.0603 | 0.0634 | – | – | –
8 | G162L | 0.073 | 0.072 | – | 0.0862 | – | 0.0749 | 0.0733 | 0.0665 | – | – | – | 0.0637 | 0.0713 | 0.0719 | 0.0579 | – | 0.0483 | –
9 | K68Y | 0.0522 | 0.0367 | 0.0735 | 0.0584 | 0.0674 | 0.0784 | 0.0756 | 0.0533 | – | – | – | – | – | – | 0.0791 | 0.068 | – | –
10 | Q198N | 0.0667 | 0.059 | – | 0.0909 | 0.0663 | 0.0746 | 0.072 | 0.0588 | 0.0759 | 0.0753 | 0.0902 | 0.068 | – | 0.0856 | – | 0.0612 | 0.068 | –
11 | T44I | 0.0376 | 0.0534 | 0.0653 | 0.0679 | 0.0525 | 0.058 | 0.0573 | 0.056 | 0.0627 | 0.0627 | – | – | – | 0.043 | 0.0593 | 0.0607 | – | 0.0518
12 | K68I | 0.0625 | 0.0655 | – | 0.0715 | 0.0684 | 0.0846 | 0.0676 | 0.0622 | 0.0764 | – | 0.0778 | 0.0484 | – | – | 0.0709 | 0.0618 | – | –
13 | T44N | 0.0491 | – | – | 0.0442 | 0.0417 | 0.0455 | 0.0426 | 0.0464 | – | 0.0544 | – | 0.0501 | – | 0.0604 | 0.0576 | 0.0449 | 0.0237 | 0.0527
14 | I84A | 0.0713 | 0.062 | – | 0.069 | 0.0661 | 0.0643 | 0.057 | 0.0456 | 0.0694 | 0.0661 | – | – | 0.0671 | 0.0737 | 0.0597 | 0.0619 | – | –
15 | I110N | 0.0641 | 0.0747 | 0.0656 | 0.0497 | 0.0577 | 0.0671 | 0.0584 | – | – | 0.0495 | 0.0322 | 0.0475 | – | – | 0.0616 | – | 0.0664 | –
16 | N13H | 0.0844 | 0.0602 | 0.0565 | – | 0.0632 | 0.0837 | – | 0.0653 | 0.0802 | – | 0.0784 | 0.0646 | 0.0734 | – | 0.058 | 0.0612 | 0.0946 | 0.089
17 | P222A | 0.0706 | 0.0528 | 0.0541 | 0.0805 | – | 0.0814 | 0.0701 | 0.065 | – | – | – | 0.0748 | 0.0505 | – | – | – | – | –
18 | T233Q | 0.0775 | 0.0506 | 0.0637 | 0.0874 | – | 0.0765 | 0.0475 | 0.0691 | 0.0569 | 0.0559 | – | – | – | – | 0.049 | – | – | –
19 | P89L | 0.0633 | – | – | 0.0621 | 0.062 | – | 0.0498 | 0.0457 | – | – | – | – | 0.0529 | 0.0581 | 0.0166 | – | – | –
20 | V229E | 0.0645 | 0.0585 | 0.0571 | 0.0829 | 0.0621 | 0.0751 | 0.0532 | 0.0557 | 0.078 | 0.0718 | 0.0846 | – | 0.0727 | 0.0914 | 0.055 | – | 0.0717 | –
21 | H76D | 0.0548 | 0.0668 | 0.0564 | 0.0582 | 0.0614 | 0.0648 | 0.0578 | 0.079 | – | – | 0.0912 | – | – | – | – | 0.0611 | – | –
22 | G54M | 0.0619 | 0.0574 | 0.0612 | 0.0677 | 0.0423 | 0.0556 | 0.0612 | – | 0.0564 | 0.0552 | 0.0449 | 0.0573 | 0.0647 | 0.0672 | 0.0618 | 0.0506 | 0.0554 | 0.0647
23 | G202R | 0.0572 | 0.0761 | 0.0653 | – | 0.0396 | 0.0652 | – | – | 0.0608 | – | – | – | 0.0633 | – | 0.0635 | – | – | –
24 | L22D | 0.0472 | 0.0488 | 0.0576 | 0.0538 | 0.0398 | 0.0499 | – | 0.048 | 0.0467 | 0.0541 | – | 0.0457 | – | 0.0611 | – | 0.0437 | 0.0466 | –
25 | Q194N | 0.068 | 0.0614 | – | 0.0853 | 0.0857 | – | – | 0.0837 | – | 0.0691 | – | 0.0735 | – | 0.0987 | 0.0691 | 0.0686 | – | –
26 | L22Y | 0.0467 | 0.0556 | 0.0483 | 0.054 | 0.0404 | 0.0539 | 0.0604 | 0.0482 | – | 0.0531 | – | 0.0477 | 0.0574 | 0.0519 | 0.0463 | 0.0607 | – | –
27 | C20L | 0.0662 | 0.0797 | 0.0656 | 0.082 | 0.0348 | 0.0805 | 0.063 | 0.0611 | 0.072 | 0.0565 | – | 0.0648 | 0.0727 | 0.0978 | 0.0602 | 0.0758 | 0.0688 | –
28 | L22C | 0.066 | 0.0668 | – | 0.0776 | 0.0627 | 0.103 | – | 0.05 | – | 0.074 | 0.0671 | – | 0.0706 | – | 0.0522 | 0.0908 | 0.0551 | –
29 | S158N | 0.0545 | 0.0486 | 0.0449 | 0.0603 | – | 0.0639 | 0.0665 | 0.0752 | 0.0747 | – | – | 0.0699 | 0.0737 | 0.061 | – | – | – | –
